Hit rate of the full screen: of about 52,000 compounds, about 4,300 (8.3%) were called active. No stated cut-off is given here; in the data, active means survival mostly below about 52% (no sharp cut-off); inactive means mostly above about 56%. This is one part of the list.
What follows are compounds tested on DeltatarO mutant (assay: S. aureus survival, RN4220 and DeltatarO strains – OD600, teichoic acid synthesis inhibitors, primary screen (AID 463173)). Conditions: S. aureus RN4220 wild type/DeltatarO growth, OD600, 18 h, active compounds read low, screened at 18.75 µg/mL (by protocol).

Row | SMILES | survival
1 | CCOC(=O)c1cc(-c2ccc(C)cc2)n(CC(=O)Nc2ccccc2F)c1C | inactive: 80%
2 | COc1ccc(Br)c2c1-c1nc(NC(=O)c3ccccc3F)sc1C2 | inactive: 69%
3 | O=C(NCc1ccccn1)C1CCCCC1 | inactive: 69%
4 | COC(=O)c1ccccc1NC(=O)c1ccc(COc2cc(C)cc(C)c2)o1 | inactive: 40%
5 | Cc1ccc2nc(-c3cc4ccccc4oc3=O)[nH]c2c1 | inactive: 66%
6 | COc1ccc(CCCc2nnc(SCC(=O)Nc3cc(C)ccc3C)o2)cc1 | inactive: 55%
7 | Cc1ccc(NC2=NCC(=O)N2C2CCCC2)cc1C | inactive: 89%
8 | Cc1ncc(CO)c2c1Oc1nc(-c3ccc(F)cc3)nc(SCC(=O)N3CCCCC3)c1C2 | inactive: 52%
9 | Cc1ccc(CN2C(=O)N(c3ccc(F)cc3)C(=O)C2CC(=O)Nc2ccc(Cl)cc2)cc1 (centres undefined) | inactive: 95%
10 | COC(=O)CN1C(=O)CSc2ccc(S(=O)(=O)Nc3cccc(Br)c3)cc21 | active: 37%
11 | Cc1ccc(NC(=O)CSc2nnc(-c3cc4occc4n3C)n2-c2ccccc2C)c(Cl)c1 | inactive: 97%
12 | O=C(NCCc1ccccc1)C1CCN(c2ncnc3c2nc2n3CCCCC2)CC1 | active: -2%
13 | COc1ccc(NC(=O)CSC2=Nc3ccccc3C3=NC(CCC(=O)NCc4cccs4)C(=O)N23)cc1 (centres undefined) | inactive: 93%
14 | Cc1ccc(C)c(Cn2c3ccccc3c3cnn(CC(=O)NC4CCC(C)CC4)c(=O)c32)c1 (centres undefined) | inactive: 64%
15 | Cc1nn(-c2ccc(F)cc2)c(-n2cccc2)c1C(=O)N1CCN(c2ccccc2)CC1 | inactive: 77%
16 | Cc1cc2nn(-c3ccccc3)nc2cc1NC(=O)COc1ccc(Cl)cc1 | inactive: 64%
17 | C=CCn1c(CSc2nc3ccccc3s2)nnc1SCC(=O)NCCN1CCOCC1 | inactive: 99%
18 | CCOc1ccc(Cn2nnc(C(=O)Nc3cccc(SC)c3)c2N)cc1 | active: 30%
19 | CCCN(CCC)C(=O)Cn1c(=O)n(-c2ccc(C)c(C)c2)c(=O)c2c3c(sc21)CCCCC3 | inactive: 69%
20 | COC(=O)C1CSCN1 (centres undefined) | inactive: 78%
21 | Cc1cc(NC(=O)c2cc(-c3cccc(Cl)c3)on2)nn1Cc1ccc(Cl)cc1 | active: 43%
22 | CC1CCC(NC(=O)CCc2cn(Cc3ccccc3Cl)c3ccccc23)CC1 (centres undefined) | active: 51%
23 | CC1(C)CC(=O)C/C(=N\NC(=O)CCc2ccccc2)C1 | inactive: 93%

Row | SMILES | survival
24 | Cc1nnc(N2CCC(C(=O)Nc3ccc(F)cc3)CC2)c2nn(-c3ccc(Cl)cc3)c(C)c12 | inactive: 72%
25 | Cc1ccc(C(=O)Nc2c(-c3ccccc3)nc3ccccn23)cc1 | active: 40%
26 | Cc1ccc(C2c3[nH]c4ccccc4c3CCN2C(=O)c2ccccc2Br)cc1 (centres undefined) | inactive: 77%
27 | CCCCOC(=O)/C(C#N)=C/c1ccc(-c2cccc(C(F)(F)F)c2)o1 | active: 46%
28 | CCOc1ccc(-c2nonc2NC(=O)c2ccco2)cc1 | inactive: 79%
29 | CCOc1ccc(NC(=O)CSc2nc3c(oc4ccccc43)c(=O)n2-c2cc(C)cc(C)c2)cc1 | inactive: 73%
30 | COc1cc(/C=C/c2nc(C#N)c(N3CCCCC3)o2)cc(OC)c1OC | inactive: 89%
31 | Cc1ccccc1CNC(=O)C1CCN(S(=O)(=O)Cc2ccccc2)CC1 | inactive: 75%
32 | CCc1ccc(NC(=O)C(=O)NCC(c2cccnc2)N2CCN(Cc3ccccc3)CC2)cc1 (centres undefined) | inactive: 75%
33 | O=C(CCCn1c(=O)c2cccn2c2ccc(F)cc21)NCc1ccc(Cl)cc1 | active: 38%
34 | COC(=O)CC1Oc2ccccc2-n2cc(-c3ccccc3)nc21 (centres undefined) | inactive: 66%
35 | CC1CCN(C(=O)CSc2c(C(C)C)cnc3c2c(=O)n(C)c(=O)n3C)CC1 | inactive: 98%
36 | Cc1ccccc1CSc1nc2cc(C(=O)NC3CCCC3)ccc2c(=O)n1Cc1ccccc1 | inactive: 107%
37 | Cc1ccc(O)c(NC(=O)c2ccc(Br)c(S(=O)(=O)N3CCCCC3)c2)c1 | inactive: 92%
38 | CCN(Cc1ccccc1)C(=O)Cn1cc(S(=O)(=O)Cc2cccc(Cl)c2)c2ccccc21 | inactive: 101%
39 | Cc1cc2c(cc1C)NC(CC(=O)Nc1ccccc1)C(=O)N2 (centres undefined) | inactive: 56%
40 | CC1(C)CC(=O)C2=C(C1)OC(N)=C(C#N)C2C#Cc1ccccc1 (centres undefined) | inactive: 104%
41 | CCOC(=O)Cn1c(=O)n(CC2CCCO2)c2nc(-c3cccc(C)c3)nc(C(N)=O)c21 (centres undefined) | inactive: 79%
42 | CCOc1ccccc1NC(=O)CCc1c(C)nn(-c2ccc(N3CCOCC3)nn2)c1C | inactive: 80%
43 | Cc1ccc(NC(=O)CSc2ncn[nH]2)cc1C | inactive: 77%
44 | Cc1c(Cl)cccc1NC(=O)c1noc2c1CCCC2 | inactive: 66%
45 | CCn1c(C)c(C)c2cc(C(=O)NCCCN3CCCCC3)ccc21 | inactive: 90%
46 | Cc1ccc(C)c(N2CCN(Cc3nnc(-c4ccc5c(c4)OCO5)o3)CC2)c1 | inactive: 70%

Row | SMILES | survival
47 | Cn1c(=O)oc2cc(S(=O)(=O)NC(Cc3ccccc3)C(=O)NCc3ccc(F)cc3)ccc21 (centres undefined) | inactive: 92%
48 | COc1ccccc1OC(C)C(=O)Nc1c(C(=O)c2ccc(Cl)cc2)oc2ccccc12 (centres undefined) | inactive: 81%
49 | CCC(=O)N1c2ccccc2CC1C(=O)NCCN1CCN(c2cccc(C(F)(F)F)c2)CC1 (centres undefined) | inactive: 105%
50 | CCC(=O)Nc1ccc2nc(SCCOc3ccccc3)sc2c1 | inactive: 87%
51 | CCCCOc1ccc(CNC(=O)c2ccc(NC(=O)N3CCCCc4ccccc43)cc2)cc1 | inactive: 70%
52 | CC(=O)Nc1nonc1-c1nnc(SCC(=O)Nc2ccccc2)n1-c1ccccc1 | active: 39%
53 | O=C(CNC(=O)c1ccccc1F)OCc1cc(=O)n2ccsc2n1 | inactive: 73%
54 | COc1ccc(OC)c(NC(=O)Cn2ccc3ccccc3c2=O)c1 | inactive: 76%
55 | COc1ccccc1C(=O)Nc1nnc(SCc2cc(=O)c3cc(Cl)ccc3[nH]2)s1 | inactive: 62%
56 | COc1ccc(NC(=O)c2c(-c3ccc(C)cc3)nnc3ccccc23)cc1Cl | inactive: 67%
57 | CCN(CC)C(=O)Cn1c(=O)n(-c2ccc(OC)cc2OC)c(=O)c2c(C)c(C(=O)N(CC)CC)sc21 | inactive: 89%
58 | CCc1c(C)nc2cc(-c3cc(OC)cc(OC)c3)nn2c1NCCCN(CC)CC | inactive: 113%
59 | O=C(NCc1ccco1)C(Sc1ccccc1)c1ccccc1 (centres undefined) | inactive: 101%
60 | Cc1ccc(C)c(N2CCN(C(=O)C3CCCN(S(=O)(=O)c4cccc5nsnc45)C3)CC2)c1 (centres undefined) | inactive: 77%
61 | Cc1ccc(N(CC(=O)NCc2ccc(F)cc2)S(=O)(=O)c2c(C)nn(C)c2C)cc1 | inactive: 68%
62 | COc1cccc(CNC(=O)c2ccc3c(c2)nnn3C2CCCC2)c1 | inactive: 130%
63 | CCCCSCCCNC(=O)c1cn(C)c2ccc(S(=O)(=O)N3CCCCC3)cc2c1=O | inactive: 79%
64 | COc1ccc(-n2nc(C(=O)Nc3ccc(C)cn3)c3c4ccccc4n(C)c3c2=O)cc1 | inactive: 76%
65 | Cc1ccc(-n2cc(-c3ccccc3)nc2S(=O)(=O)CC(=O)Nc2ccc(F)cc2)cc1 | inactive: 103%
66 | O=C(NCC1CCN(S(=O)(=O)c2ccc(Cl)cc2)CC1)C1CCCO1 (centres undefined) | inactive: 80%
67 | CCN(CC)CCCNC(=O)c1cn(CC)c2ccc(S(=O)(=O)N3CCc4ccccc4C3)cc2c1=O | inactive: 121%
68 | O=S(=O)(c1ccccc1)c1nc(-c2ccc(Cl)cc2Cl)oc1N1CCCCC1 | inactive: 90%
69 | Cc1nc(-c2ccc(Cl)cc2)sc1CCNC(=O)Cc1ccc(F)cc1 | inactive: 98%

Row | SMILES | survival
70 | COc1ccc(C)cc1NC(=O)Cn1c(=O)cc(C)c2c(C)nn(C)c21 | inactive: 77%
71 | Cc1ccc(CN2CCN(C3CCN(C(=O)c4ccccc4)CC3)C(=O)C2=O)cc1 | inactive: 88%
72 | Cc1ccc(CSc2oc(-c3ccco3)nc2S(=O)(=O)c2ccc(C)cc2)cc1 | inactive: 62%
73 | COc1cc(/C=C(\C#N)c2nc3ccccc3[nH]2)cc(Cl)c1OCc1ccccc1Cl | inactive: 68%
74 | CCOC(=O)c1ccc(NC(=O)/C(C#N)=C/c2ccc(OC)cc2)cc1 | inactive: 82%
75 | O=C(CSc1nccc(=O)[nH]1)Nc1cccc2ccccc12 | inactive: 68%
76 | S=c1nc(CNc2ccccc2)[nH][nH]1 | inactive: 90%
77 | CCc1ccc(-n2c(=O)c3c(C)c(C)sc3n(CC(=O)NCc3ccc(C)cc3)c2=O)cc1 | inactive: 138%
78 | CCCCc1nn2c(=O)cc(COC(=O)c3cccc(NC(=O)CCc4ccccc4)c3)nc2s1 | inactive: 91%
79 | CCCN(CCC)C(=O)Cn1c(=O)n(-c2ccccc2)c(=O)c2c3c(sc21)CCCC3 | inactive: 74%
80 | N#C/C(=C/c1ccc(Cl)cc1)c1nc(-c2ccc(Br)cc2)cs1 | inactive: 65%
81 | O=S(=O)(NCc1nc2cccnc2n1Cc1ccccc1)c1ccc2c(c1)CCCC2 | inactive: 73%
82 | Cc1c(NC(=O)Nc2ccc(Br)cc2F)sc2nc3n(c(=O)c12)CCC(C)CC3 (centres undefined) | inactive: 98%
83 | CCOC(=O)c1c(S(=O)(=O)NCC(=O)N2CCN(c3ccccc3)CC2)c(C)n(C)c1C | inactive: 87%
84 | COc1ccccc1CNC(=O)CCn1c(=O)c2ccccc2n(CC(=O)Nc2ccc(C)cc2Cl)c1=O | inactive: 77%
85 | Fc1ccc(C(NCCc2ccc(Cl)cc2)c2nnc(-c3ccccc3)o2)c(Cl)c1 (centres undefined) | active: -2%
86 | CCc1cccc(C)c1NC(=O)c1cc(S(=O)(=O)NCc2ccccc2Cl)ccc1F | inactive: 97%
87 | CC(=O)Nc1ccc(-c2nc3cc(Cl)ccc3o2)cc1 | inactive: 85%
88 | CC(=O)NCC(c1ccc2c(c1)OCO2)N1CCN(c2ccccc2)CC1 (centres undefined) | inactive: 80%
89 | CCCn1c2ccccc2c2cnn(CC(=O)N(C)c3ccccc3CC)c(=O)c21 | inactive: 82%

From PubChem BioAssay AID463173 (ICCB-Longwood Screening Facility, Harvard Medical School, 2010)
